# Measurements from PubChem BioAssay AID1569 (National Center for Advancing Translational Sciences (NCATS), 2009).
# The inconclusive results got no clear call from the source; some entries with a clear call stand among them for comparison. Where the call is inconclusive, the potency comes from a doubtful curve fit. Activity calls are given as the source filed them. Calls come from the whole dose curve; as a rule, active = well fitted inhibition curve with a large enough effect; inconclusive = small, poorly fitted or top-dose-only effect, or effect the other way, or another doubt; inactive = no such curve, though single readings can be large or run the other way.
# Experiment: Confirmation Concentration-Response Assay for lipid storage modulators; note: nearly all actives have a fitted effect of over 80% in size;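 for activity change, negative = inhibition: -100% = full block of lipid deposition by 20 µM Triacsin C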
# Details: Drosophila S3 cells, lipid droplet BODIPY/CellTracker ratio, 18-24 h; activity change, negative = inhibition: at 46.1 µM (top of the series)
# Outline: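 Cells at 5,000/well received compound as a titration plus oleic acid (added as 400 uM solution) and were incubated 18–24 h at 24 °C. BODIPY 493/503 lipid signal and CellTracker Red cell count were read by 488-nm laser-scanning cytometry. Activity was normalised to 20 uM Triacsin C.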
# Potency is the fitted concentration of half-maximal effect; tags give direction and shape of the fitted curve.
SMILES,Potency,"activity change, negative = inhibition"
CCOC(=O)c1c(NC(=O)c2ccc(S(=O)(=O)N(C)CC3CCCO3)cc2)sc2c1CCN(C)C2 (configuration not stated),"inconclusive: 0.628 µM [falling, full curve, poor fit]",
CCOC(=O)C1=C(CC)Nc2ccccc2N=C1NC(=O)Nc1ccccc1OC,"inconclusive: 1.25 µM [activator, full curve]",
COc1ccc(CCCc2nnc(SCC(=O)Nc3nc(C)cs3)n2C)cc1C,active: 1.41 µM,
CCOc1ccc(CCNC(=O)Cn2cccc2C(=O)c2ccccc2)cc1OCC,active: 7.91 µM,
CCOc1ccc(CCNC(=O)COC(=O)c2ccc3c(c2)OCCO3)cc1OCC,active: 1.41 µM,
O=[N+]([O-])c1ccc(F)cc1OCc1cccc(S(=O)(=O)N2CCOCC2)c1,,inconclusive: 231% [activator]
CCOc1ccc(S(=O)(=O)Nc2ccccc2C(=O)NCc2ccco2)cc1,"inconclusive: 15.8 µM [activator, partial curve]",
CCOC(=O)c1c(N)n[nH]c1-c1ccc(OC)cc1,"inconclusive: 4.45 µM [activator, partial curve]",
COc1ccc(C(=O)NC(C(=O)NCCc2ccc3c(c2)OCCO3)C(C)C)cc1 (configuration not stated),"inconclusive: 0.199 µM [activator, full curve, poor fit]",
COc1cccc(C(=O)COc2ccc(NC(=O)c3cccs3)cc2)c1,"inconclusive: 25 µM [falling, single point]",
O=C(CSc1nccn1-c1ccccc1)NCc1ccc2c(c1)OCO2,"inconclusive: 17.7 µM [activator, partial curve]",
Cn1nc(C(C)(C)C)cc1C(=O)NCc1ccc2c(c1)OCO2,active: 2.5 µM,
COc1ccc(CN2C(=O)c3cccnc3C2Nc2ccc(C)cc2)cc1 (configuration not stated),"inconclusive: 6.28 µM [activator, full curve]",
COc1ccc(CCNC(=O)Cn2nnc(-c3ccc(OC)c(OC)c3)n2)cc1OC,"inconclusive: 14.1 µM [falling, partial curve, poor fit]",
CCCCn1c(N)c(N(Cc2ccccc2OC)C(=O)COc2ccc(C)cc2)c(=O)[nH]c1=O,"inconclusive: 7.91 µM [activator, partial curve]",
COc1ccc(CCNC(=O)c2cnc3scc(C)n3c2=O)cc1OC,"inconclusive: 4.45 µM [activator, full curve]",
O=C(c1ccc(COc2ccccc2Br)cc1)N1CCCCC1,"inconclusive: 4.45 µM [activator, full curve]",
